# The list shows a part of the results.
# B1: PX9961T-pdi-555-33-555 (Parabacteroides distasonis) (protein)
# chain: FDEETAFQSPTLVYVNTVASLYNNMFKIMGNDRHVYDLNTFSSDEAMLPCRIGDWEDGGLWQNIFLHRWGTMNDLTKNSWDFLYEQIGKCNQSVDKLQAFAEEQPDVEYFKVYLEEVRAVRAFFYYELLDLFARVPLVTSSTTPMSEVKQSERSVVFNFVRSELEEALPYLSDNRSNQKGEYYGRITKPVAYMILAKLALNAEVYADDNWTDGNRPAGKNIKFTVDGKEMNAWEATIAYVDKLEALGYKLQGNFSENFAVANETSVENIFTVPMDPVAYPDAKDYNLVRTRHYDHATAYGQSGWNGSCATVKAMNVFKFGTADEDPRCKLTYFTGEVTGPDGKTIYTEWDGQKVPLKYEPNAPKVYMDASDGLLVKTAGARMAKYEFDQNAQDGGNLHGNDCVIFRFADALLMKAEAKIRLGQNGDDEVNQVRNRVGAKPLQNVTLDTLLDERMLELAWEGVRRQDLIRFGKFTEATVDRYVGVKHFASSLDYQEDKTGYTTVFSIYADILSLNPNLTQNPGY
# What was measured:
# Assay in all cases: glycan array binding signal (z-score within array); higher = stronger binding
# Conditions in all cases: glycan notation: IUPAC condensed, linker removed
# [1] = target: Fuc(a1-2)[Gal(a1-4)]Gal(b1-4)GlcNAc
# Outline: (§1)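 The binding signal is a Z-score computed within each array. Data were drawn from 3228 arrays in the Consortium for Functional Glycomics database, restricted to those with a known protein sequence. Scores were averaged over arrays of the same protein sequence at different concentrations or buffers, and over linkers, and negative values can be taken as non-binding.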
# [2] = target: Fuc(a1-2)[GalNAc(a1-3)]Gal
# Outline: as §1
# [3] = target: Fuc(a1-2)[GalNAc(a1-3)]Gal(b1-3)GalNAc(a1-3)[Fuc(a1-2)]Gal(b1-4)GlcNAc
# Outline: as §1
# [4] = target: Fuc(a1-2)[GalNAc(a1-3)]Gal(b1-3)GalNAc(b1-3)Gal(a1-4)Gal(b1-4)Glc
# Outline: as §1
# [5] = target: Fuc(a1-2)[GalNAc(a1-3)]Gal(b1-3)GlcNAc
# Outline: as §1
# [6] = target: Fuc(a1-2)[GalNAc(a1-3)]Gal(b1-3)GlcNAc(b1-2)Man(a1-3)[Fuc(a1-2)[GalNAc(a1-3)]Gal(b1-3)GlcNAc(b1-2)Man(a1-6)]Man(b1-4)GlcNAc(b1-4)GlcNAc
# Outline: as §1
# [7] = target: Fuc(a1-2)[GalNAc(a1-3)]Gal(b1-3)GlcNAc(b1-2)Man(a1-3)[Fuc(a1-2)[GalNAc(a1-3)]Gal(b1-3)GlcNAc(b1-2)Man(a1-6)]Man(b1-4)GlcNAc(b1-4)[Fuc(a1-6)]GlcNAc
# Outline: as §1
# [8] = target: Fuc(a1-2)[GalNAc(a1-3)]Gal(b1-3)GlcNAc(b1-3)GalNAc
# Outline: as §1
# [9] = target: Fuc(a1-2)[GalNAc(a1-3)]Gal(b1-3)GlcNAc(b1-6)GalNAc
# Outline: as §1
# [10] = target: Fuc(a1-2)[GalNAc(a1-3)]Gal(b1-4)Glc
# Outline: as §1
# [11] = target: Fuc(a1-2)[GalNAc(a1-3)]Gal(b1-4)GlcNAc
# Outline: as §1
# [12] = target: Fuc(a1-2)[GalNAc(a1-3)]Gal(b1-4)GlcNAc(b1-2)Man
# Outline: as §1
# [13] = target: Fuc(a1-2)[GalNAc(a1-3)]Gal(b1-4)GlcNAc(b1-2)Man(a1-3)[Fuc(a1-2)[GalNAc(a1-3)]Gal(b1-4)GlcNAc(b1-2)Man(a1-6)]Man(b1-4)GlcNAc(b1-4)GlcNAc
# Outline: as §1
# [14] = target: Fuc(a1-2)[GalNAc(a1-3)]Gal(b1-4)GlcNAc(b1-2)Man(a1-3)[Fuc(a1-2)[GalNAc(a1-3)]Gal(b1-4)GlcNAc(b1-2)Man(a1-6)]Man(b1-4)GlcNAc(b1-4)[Fuc(a1-6)]GlcNAc
# Outline: as §1
# [15] = target: Fuc(a1-2)[GalNAc(a1-3)]Gal(b1-4)GlcNAc(b1-3)Gal(b1-4)GlcNAc
# Outline: as §1
# [16] = target: Fuc(a1-2)[GalNAc(a1-3)]Gal(b1-4)GlcNAc(b1-3)Gal(b1-4)GlcNAc(b1-3)Gal(b1-4)GlcNAc
# Outline: as §1
# [17] = target: Fuc(a1-2)[GalNAc(a1-3)]Gal(b1-4)GlcNAc(b1-3)GalNAc
# Outline: as §1
# [18] = target: Fuc(a1-2)[GalNAc(a1-3)]Gal(b1-4)GlcNAc(b1-3)[Fuc(a1-2)[GalNAc(a1-3)]Gal(b1-4)GlcNAc(b1-6)]GalNAc
# Outline: as §1
# [19] = target: Fuc(a1-2)[GalNAc(a1-3)]Gal(b1-4)GlcNAc(b1-6)GalNAc
# Outline: as §1
# [20] = target: Fuc(a1-2)[GalNAc(a1-3)]Gal(b1-4)[Fuc(a1-3)]GlcNAc
# Outline: as §1
# [21] = target: Fuc(a1-2)[GalNAc(a1-3)]Gal(b1-4)[Fuc(a1-3)]GlcNAc(b1-3)GalNAc
# Outline: as §1
# [22] = target: Fuc(a1-2)[GalNAc(a1-4)]Gal(b1-4)GlcNAc
# Outline: as §1
# [23] = target: Fuc(a1-2)[GalNAc(b1-3)]Gal
# Outline: as §1
# Fuc(a1-3)GlcNAc = target: Fuc(a1-3)GlcNAc
# Outline: as §1
# [24] = target: Fuc(a1-3)[Gal(b1-4)]Glc6S
# Outline: as §1
# [25] = target: Fuc(a1-3)[Gal(b1-4)]GlcNAc
# Outline: as §1
# [26] = target: Fuc(a1-3)[Gal(b1-4)]GlcNAc(b1-2)Man
# Outline: as §1
# [27] = target: Fuc(a1-3)[Gal(b1-4)]GlcNAc(b1-2)Man(a1-3)[Fuc(a1-3)[Gal(b1-4)]GlcNAc(b1-2)Man(a1-6)]Man(b1-4)GlcNAc(b1-4)GlcNAc
# Outline: as §1
# [28] = target: Fuc(a1-3)[Gal(b1-4)]GlcNAc(b1-2)Man(a1-3)[Fuc(a1-3)[Gal(b1-4)]GlcNAc(b1-2)Man(a1-6)]Man(b1-4)GlcNAc(b1-4)[Fuc(a1-6)]GlcNAc
# Outline: as §1
# [29] = target: Fuc(a1-3)[Gal(b1-4)]GlcNAc(b1-3)Gal(b1-3)[Fuc(a1-4)]GlcNAc
# Outline: as §1
# [30] = target: Fuc(a1-3)[Gal(b1-4)]GlcNAc(b1-3)Gal(b1-4)[Fuc(a1-3)]GlcNAc
# Outline: as §1
# [31] = target: Fuc(a1-3)[Gal(b1-4)]GlcNAc(b1-3)Gal(b1-4)[Fuc(a1-3)]GlcNAc(b1-3)Gal(b1-4)[Fuc(a1-3)]GlcNAc
# Outline: as §1
# [32] = target: Fuc(a1-3)[Gal(b1-4)]GlcNAc(b1-3)GalNAc
# Outline: as §1
# [33] = target: Fuc(a1-3)[Gal(b1-4)]GlcNAc(b1-6)GalNAc
# Outline: as §1
# [34] = target: Fuc(a1-3)[Gal(b1-4)]GlcNAc(b1-6)[Gal(b1-3)GlcNAc(b1-3)]Gal(b1-4)Glc
# Outline: as §1
# [35] = target: Fuc(a1-3)[Gal(b1-4)]GlcNAc6S
# Outline: as §1
# [36] = target: Fuc(a1-3)[Gal3S(b1-4)]Glc
# Outline: as §1
# [37] = target: Fuc(a1-3)[Gal3S(b1-4)]GlcNAc
# Outline: as §1
binder,measurement,setting,value
B1,glycan array binding signal (z-score),[1],-0.466
same,glycan array binding signal (z-score),[2],0.066
same,glycan array binding signal (z-score),[3],-0.671
same,glycan array binding signal (z-score),[4],-0.318
same,glycan array binding signal (z-score),[5],-0.05
same,glycan array binding signal (z-score),[6],0.798
same,glycan array binding signal (z-score),[7],-0.046
same,glycan array binding signal (z-score),[8],-0.257
same,glycan array binding signal (z-score),[9],-0.892
same,glycan array binding signal (z-score),[10],-0.12
same,glycan array binding signal (z-score),[11],-0.266
same,glycan array binding signal (z-score),[12],0.065
same,glycan array binding signal (z-score),[13],-0.643
same,glycan array binding signal (z-score),[14],2.12
same,glycan array binding signal (z-score),[15],-0.445
same,glycan array binding signal (z-score),[16],-0.438
same,glycan array binding signal (z-score),[17],-0.475
same,glycan array binding signal (z-score),[18],0.341
same,glycan array binding signal (z-score),[19],-0.087
same,glycan array binding signal (z-score),[20],-0.348
same,glycan array binding signal (z-score),[21],-0.097
same,glycan array binding signal (z-score),[22],0.411
same,glycan array binding signal (z-score),[23],-0.466
same,glycan array binding signal (z-score),Fuc(a1-3)GlcNAc,-0.066
same,glycan array binding signal (z-score),[24],-0.485
same,glycan array binding signal (z-score),[25],-0.143
same,glycan array binding signal (z-score),[26],0.325
same,glycan array binding signal (z-score),[27],-0.199
same,glycan array binding signal (z-score),[28],-0.637
same,glycan array binding signal (z-score),[29],-0.72
same,glycan array binding signal (z-score),[30],-0.611
same,glycan array binding signal (z-score),[31],-0.822
same,glycan array binding signal (z-score),[32],0.098
same,glycan array binding signal (z-score),[33],0.489
same,glycan array binding signal (z-score),[34],0.275
same,glycan array binding signal (z-score),[35],0.012
same,glycan array binding signal (z-score),[36],0.336
same,glycan array binding signal (z-score),[37],0.652

# — the supplement of paper PMC8728848
